The supplement of paper PMC9433436
± gives the standard deviation of the averaged measurements. Whole data set: some 4,100 sequences, median “relative kcat/Km (krel) vs genomic leader AAAGAU” near 1.7, cut for the highest 2% near 6.5. The entries are a selection whose mix differs from that of the whole data set.

Molecular target: T1, E. coli RNase P holoenzyme (M1 P RNA + rnpA protein) (UniProt P0A7Y8)
T1 sequence: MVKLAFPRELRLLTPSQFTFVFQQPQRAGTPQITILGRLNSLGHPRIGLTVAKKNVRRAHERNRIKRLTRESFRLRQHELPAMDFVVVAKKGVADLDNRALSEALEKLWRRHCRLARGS
Experiment: relative kcat/Km (krel) vs genomic leader AAAGAU (relative (reference leader = 1)); higher = faster RNase P cleavage
Procedure: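 HTS-Kin: a pool of ptRNA-Met (21C construct) with all 4096 combinations of 5' leader nucleotides N(-6) to N(-1) was processed in vitro by E. coli RNase P (P RNA + rnpA/C5 protein) under multiple-turnover conditions at 37 C, pH 8, 17.5 mM MgCl2. Residual substrate was Illumina-sequenced at several fractions reacted, and relative kcat/Km (krel) was computed by internal competition kinetics, calibrated to the genomic leader (AAAGAU = 1). The listed hexamer is the varied N(-6)..N(-1) leader (DNA letters), and it sits between a fixed 5' stem-loop flank (GCAUGCACGAAAGUGCGUGCUAUGAA) and the mature tRNA-Met starting GGCUACGUAGCUCAGUUGG. Two technical replicates are averaged.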

[1] = fraction of substrate reacted: ~9-10% (9.79% repeat 1, 9.1% repeat 2)
[2] = fraction of substrate reacted: ~13-16% (15.68% repeat 1, 13.17% repeat 2)
[3] = fraction of substrate reacted: ~26-29% (28.66% repeat 1, 26.4% repeat 2)

Row | Sequence | relative kcat/Km [1] | relative kcat/Km [2] | relative kcat/Km [3]
1 | CCCCAC | 2.35 ± 1.6 | 2.96 ± 0.19 | 5.06 ± 1.8
2 | TTGGGT | – | – | 1.65 ± 1.2
3 | TACGTC | 2.61 ± 0.68 | 3.76 ± 0.72 | 4.86 ± 2
4 | TGCCTC | 1.86 ± 0.51 | 2.58 ± 0.92 | 3.4 ± 1.6
5 | TCGTAG | 1.32 ± 0.27 | 1.93 ± 0.13 | 3.82 ± 1.3
6 | CGTAAT | 1.92 ± 0.64 | 3.09 ± 0.92 | 5.4 ± 2.4
7 | GAACCT | 1.05 ± 0.64 | 1.65 ± 1.3 | 1.84 ± 0.97
8 | GCCAGC | 1.77 ± 0.65 | 2.1 ± 0.77 | 3.51 ± 0.92
9 | CCAGTA | 1.71 ± 0.98 | 0.789 ± 0.077 | 1.17 ± 0.046
10 | TAAATA | 2.08 ± 1.1 | 1.83 ± 0.52 | 2.27 ± 0.69
11 | ACCTAT | 3.74 ± 1.7 | 4.66 ± 0.24 | 6.39 ± 2.5
12 | TGCACC | 1.72 ± 0.76 | 1.14 ± 0.99 | 2.13 ± 1.4
13 | TAGAGG | – | 0.616 ± 0.31 | 1.27 ± 0.33
14 | TAACTA | 1.23 ± 0.79 | – | 1.67 ± 0.25
15 | TCTATG | – | 2.22 ± 0.12 | 4.13 ± 1.1
16 | TAAGAT | 1.677 ± 0.0069 | 2.11 ± 0.53 | 2.51 ± 1.3
17 | CCGAAA | 1.99 ± 0.6 | 1.29 ± 0.33 | 2.82 ± 0.4
18 | TCAGAA | 2.03 ± 0.55 | 2.39 ± 0.63 | 3.82 ± 1.2
19 | ATACGG | – | – | 0.673 ± 0.33
20 | GCTCAG | – | 0.21 ± 0.1 | 0.872 ± 0.11
21 | GATTGG | – | – | 0.409 ± 0.2
22 | CTAGGG | – | – | 0.691 ± 0.037
23 | TCACCT | 2.64 ± 0.76 | 1.98 ± 0.59 | 2.58 ± 0.53
24 | GGCACT | 1.99 ± 1.6 | 1.75 ± 0.28 | 2.89 ± 1.2
25 | CTCGGG | – | – | 0.404 ± 0.11
26 | CAGGTA | 1.05 ± 0.58 | 1.11 ± 1.1 | 1.08 ± 0.73

Row | Sequence | relative kcat/Km [1] | relative kcat/Km [2] | relative kcat/Km [3]
27 | GCTCCC | 1.35 ± 1 | 0.482 ± 0.068 | 1.73 ± 0.085
28 | AAAGTA | 1.73 ± 0.85 | 0.873 ± 0.2 | 1.23 ± 0.47
29 | GATTTA | 1.88 ± 1 | 2.11 ± 0.066 | 2.67 ± 0.84
30 | TTCTAG | 4.08 ± 2.6 | 4.58 ± 0.56 | 7.01 ± 3.1
31 | TCGCTC | 3.14 ± 1.1 | 3.21 ± 1.3 | 4.37 ± 2.2
32 | GCCCAT | 3.07 ± 2.2 | 3.36 ± 0.14 | 5.4 ± 1.5
33 | GTCGGT | – | – | 2.3 ± 1.4
34 | TTACGT | 0.467 ± 0.46 | 1.73 ± 1.6 | –
35 | TTAGCG | – | 0.258 ± 0.21 | 1.18 ± 0.066
36 | AATTAC | 3.5 ± 1.7 | 3.97 ± 0.31 | 5.32 ± 1.9
37 | GTCATA | 4.4 ± 2 | 4.91 ± 0.65 | 7.54 ± 3
38 | TTTATA | 2.14 ± 0.68 | 2.64 ± 0.089 | 3.68 ± 1.5
39 | TTGACT | 1.07 ± 0.43 | 0.843 ± 0.097 | 1.29 ± 0.095
40 | CGCAGC | 1.95 ± 0.49 | 2.54 ± 0.82 | 3.89 ± 0.98
41 | GATCTT | 1.79 ± 0.87 | 2.5 ± 0.031 | 3.1 ± 1.4
42 | GCGGAC | – | 0.914 ± 0.43 | 0.533 ± 0.27
43 | GTCGTC | 3.09 ± 1.7 | 2.79 ± 0.12 | 4.02 ± 1.6
44 | TGTACA | 2.01 ± 0.86 | 2.29 ± 0.24 | 3.29 ± 1.4
45 | GCGCCG | – | – | 0.778 ± 0.35
46 | GCAAAC | 2.18 ± 0.65 | 1.73 ± 0.082 | 2.28 ± 0.6
47 | CTTCCA | 2 ± 0.45 | 2.15 ± 0.27 | 1.93 ± 0.68
48 | GACGGT | – | – | 1.46 ± 0.94
49 | CCGTCT | 1.57 ± 0.58 | 2.06 ± 1.2 | 2.49 ± 0.22
50 | TGATAG | 1.83 ± 1.4 | 1.89 ± 0.38 | 3.5 ± 1.5
51 | CTAAAC | 1.46 ± 0.14 | 2.2 ± 0.18 | 2.91 ± 0.65
52 | TTGTCC | 2.58 ± 1.1 | 2.56 ± 0.32 | 3.87 ± 1
